According to PubChem BioAssay (NCI):
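In this assay, cells in 96-well plates receive the compound at five concentrations for 48 hours. Endpoints are linearly interpolated between the surrounding concentrations. The concentration for 50% growth inhibition is given as GI50.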 Certain results were filed several times, with different values. This list holds those alone. The source may hold further records. For part of these data: Values that stand side by side are repeats (runs, samples, wells, individuals or studies). Brackets tell where a record comes from. A, B and so on number the origins entry by entry.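 TGI is the concentration that stops growth completely.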 For part of these data: A record mostly stands for its own series of concentrations, not given here; some values may only mark the edge of a range.

Key:
Assay in all cases: NCI-60 cell line screen, 48 h
[1] = test system: HT29 colon
[2] = test system: SN12C renal
[3] = test system: MDA-N
[4] = test system: COLO 205 colon
[5] = test system: NCI-H226 lung
[6] = test system: SK-MEL-28 melanoma
[7] = test system: TK-10 renal
[8] = test system: UACC-62 melanoma

Compound: CC(=O)OC1CC2(O)C(CCC3(C)C(c4ccc(=O)oc4)CCC32O)C2(C)CCC(O)C=C12 (centres undefined)
- TGI [1]: 143 nM and 1.99 µM
- TGI [2]: 180 nM and 3.87 µM

Compound: CC(=O)OCC1OC(n2c(-c3ccccc3)c(N=Nc3ccc(Cl)cc3)c(C)c(C#N)c2=S)C(OC(C)=O)C(OC(C)=O)C1OC(C)=O (centres undefined)
- GI50 [3]: 9.45 µM [sample A, 1 test] and > 100 µM [sample B, 1 test]

Compound: Cn1c(=O)c(F)c(Nc2ccc(I)cc2F)c2c(=O)n(C[C@@H](O)CO)cnc21
- TGI [4]: 13.7 µM [sample A, mean of 2 tests] and 107 nM [sample B, 1 test]
- GI50 [5]: 1.15 µM [sample A, mean of 2 tests] and 39.9 nM [sample B, 1 test]
- TGI [5]: 45 µM [sample A, mean of 2 tests] and 2.64 µM [sample B, 1 test]
- TGI [6]: 14.3 µM [sample A, mean of 2 tests] and 26.5 nM [sample B, 1 test]
- GI50 [7]: 183 nM [sample A, mean of 2 tests] and 16.2 nM [sample B, mean of 2 tests]
- TGI [8]: 854 nM [sample A, mean of 2 tests] and 23.4 nM [sample B, 1 test]
